Assay results: PubChem BioAssay (NCATS)
“And” between values parts separate entries of the source, which are not always exact repeats. Identical values can stand only once. The shares of active, inactive and inconclusive entries below differ from those in the screen. For part of these data: A potency beside an inconclusive call is a rough fit, not a confirmed value. The source made the active and inactive calls. Unless noted, calls follow the shape of the dose curve; as a rule, active = well fitted curve in the direction sought with a large enough effect; inconclusive = small, poorly fitted or top-dose-only effect, or another doubt; inactive = no such curve, though single readings can be large; an effect the other way counts as inactive or inconclusive.

Assays:
[1] = qHTS to identify inhibitors of the type 1 interferon - major histocompatibility complex class I in skeletal muscle: primary screen against the NCATS Mechanism Interrogation Plate v5.0 (MIPE) Libary (AID 1347411); conditions: iHSKM cells + IFN-b, HiBiT-tagged MHC-I luminescence, 24 h; activity change, negative = inhibition: at 45.8 µM (top of the series); also: nearly all actives have a fitted effect of over 65% in size; also: potency is read from the fitted curve at half-maximal effect;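 as to activity change, negative = inhibition: plate controls were vehicle for no effect and reference inhibitor for full effect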
Procedure, shortened: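 HLA-B HiBit myoblasts, dexamethasone-free medium + 4 ng/ml IFN-b, 24 h compound, 11-pt 1:3 from 46 uM final. Readout: Nano-Glo HiBiT lytic luminescence after 10 min lysis, RT.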

[2] = target: Cytochrome P450 2D6 (Homo sapiens) (UniProt P10635); test: Cytochrome P450 family 2 subfamily D member 6 (CYP2D6) small molecule antagonists: luciferase biochemical (cell-free) qHTS assay (AID 1645840; active = well fitted curve in the direction sought with a large enough effect in the repeat runs; inconclusive = weak or mixed curves; inactive = no such curve, though single readings can be large; an effect the other way counts as inactive or inconclusive; also: nearly all actives have a fitted effect of over 55% in size; also: potency is read from the fitted curve at half-maximal effect; as to activity change, negative = inhibition: % is scaled to controls: 0 for no effect and ±100 for the full control effect)
Procedure, shortened: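 P450-Glo CYP2D6 system: proluciferin substrate converted by enzyme to luciferin, read by luminescence proportional to activity. Enzyme-substrate mix with compound 10 min at room temperature, then NADPH regeneration 1 h before detection reagent.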

[3] = target: Cytochrome P450 2C9 (Homo sapiens) (UniProt P11712); test: Cytochrome P450 family 2 subfamily C member 9 (CYP2C9) small molecule antagonists: luciferase biochemical (cell-free) qHTS assay (AID 1645842; active = well fitted curve in the direction sought with a large enough effect in the repeat runs; inconclusive = weak or mixed curves; inactive = no such curve, though single readings can be large; an effect the other way counts as inactive or inconclusive; also: nearly all actives have a fitted effect of over 55% in size; also: potency is read from the fitted curve at half-maximal effect; as to activity change, negative = inhibition: % is scaled to controls: 0 for no effect and ±100 for the full control effect)
Procedure, shortened: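 P450-Glo CYP2C9 system: proluciferin substrate with enzyme in mix containing 0.4% BSA, 10 min at room temperature, then NADPH regeneration solution added and incubated 1 h at 37C. Detection reagent stopped reaction; luminescence read after 20 min as RLU.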

[4] = Primary qHTS for small molecule stabilizers of the endoplasmic reticulum resident proteome: Secreted ER Calcium Modulated Protein (SERCaMP) assay (AID 1508630); conditions: SH-SY5Y GLuc-SERCaMP (Gaussia luciferase released on ER calcium loss) secretion, thapsigargin, luminescence; activity change, negative = inhibition: at 38.4 µM (top of the series); also: potency is read from the fitted curve at half-maximal effect; as to activity change, negative = inhibition: % is scaled to controls: 0 for no effect and ±100 for the full control effect
Procedure, shortened: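 The SH-SY5Y reporter protocol was run at 3 concentrations up to 38.3 uM (primary) or 11 concentrations (follow-up): 16 h compound, 100 nM thapsigargin for 4 h, then extracellular luciferase luminescence.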

[5] = target: Cytochrome P450 3A4 (Homo sapiens) (UniProt P08684); test: Cytochrome P450 family 3 subfamily A member 4 (CYP3A4) small molecule antagonists: luciferase qHTS assay (AID 1645841; active = well fitted curve in the direction sought with a large enough effect in the repeat runs; inconclusive = weak or mixed curves; inactive = no such curve, though single readings can be large; an effect the other way counts as inactive or inconclusive; also: potency is read from the fitted curve at half-maximal effect; nearly all actives have a fitted effect of over 45% in size)
Procedure, shortened: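 P450-Glo CYP3A4 enzyme with proluciferin substrate preincubated 10 min with compound at room temperature, then NADPH regeneration 1 h. Luciferin detection reagent added for 20 min; luminescence recorded. Ketoconazole positive control.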

[6] = target: Protein phosphatase 1D (Homo sapiens) (UniProt O15297); test: RapidFire Mass Spectrometry qHTS Assay for Modulators of WT P53-Induced Phosphatase 1 (WIP1) (AID 1347424);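 also: plate controls were DMSO wells for no effect and GSK830371 inhibitor control at 10 µM for full effect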
Procedure, shortened: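 RapidFire MS readout of dephosphorylated VEPPL-S-QETFS product, with 1 uM isotope-labelled peptide standard. Reaction: 10 nM WIP1, 2 uM phosphopeptide substrate, 5 min, room temperature, after 1 h compound preincubation; stopped with 0.5% formic acid.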

[7] = target: Calcium and integrin-binding protein 1 (Homo sapiens) (UniProt Q99828); test: Validation qHTS for Identification of Calcium Integrin Binding protein 1 (CIB1) Competitor (AID 1508618); also: % is scaled to controls: 0 for no effect and ±100 for the full control effect
Procedure, shortened: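 CIB1-GST (1 uM final) incubated 15 min at room temperature with compounds (up to 114 uM), then FITC-labelled alphaIIb peptide (100 nM) added. FP read (Ex 480/Em 540) after 15 min, pH 7.4 buffer containing 5 mM CaCl2.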
Tags tell the direction and shape of the fitted curve.

Sequence of UniProt P10635 (P10635 whole entry, looked up): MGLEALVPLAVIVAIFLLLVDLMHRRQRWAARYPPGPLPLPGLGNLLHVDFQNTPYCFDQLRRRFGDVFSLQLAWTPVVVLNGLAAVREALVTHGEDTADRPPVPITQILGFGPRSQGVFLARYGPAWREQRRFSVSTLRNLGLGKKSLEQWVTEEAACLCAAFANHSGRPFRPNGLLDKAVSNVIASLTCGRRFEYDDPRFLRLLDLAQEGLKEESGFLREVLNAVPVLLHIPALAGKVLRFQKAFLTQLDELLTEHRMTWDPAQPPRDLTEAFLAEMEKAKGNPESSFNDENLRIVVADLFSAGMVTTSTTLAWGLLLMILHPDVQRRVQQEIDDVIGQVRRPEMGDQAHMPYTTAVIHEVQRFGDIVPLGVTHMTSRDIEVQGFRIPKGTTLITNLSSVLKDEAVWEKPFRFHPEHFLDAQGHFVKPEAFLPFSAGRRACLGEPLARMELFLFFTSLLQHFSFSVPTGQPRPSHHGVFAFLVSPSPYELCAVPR
Sequence of UniProt P11712 (P11712 whole entry, looked up): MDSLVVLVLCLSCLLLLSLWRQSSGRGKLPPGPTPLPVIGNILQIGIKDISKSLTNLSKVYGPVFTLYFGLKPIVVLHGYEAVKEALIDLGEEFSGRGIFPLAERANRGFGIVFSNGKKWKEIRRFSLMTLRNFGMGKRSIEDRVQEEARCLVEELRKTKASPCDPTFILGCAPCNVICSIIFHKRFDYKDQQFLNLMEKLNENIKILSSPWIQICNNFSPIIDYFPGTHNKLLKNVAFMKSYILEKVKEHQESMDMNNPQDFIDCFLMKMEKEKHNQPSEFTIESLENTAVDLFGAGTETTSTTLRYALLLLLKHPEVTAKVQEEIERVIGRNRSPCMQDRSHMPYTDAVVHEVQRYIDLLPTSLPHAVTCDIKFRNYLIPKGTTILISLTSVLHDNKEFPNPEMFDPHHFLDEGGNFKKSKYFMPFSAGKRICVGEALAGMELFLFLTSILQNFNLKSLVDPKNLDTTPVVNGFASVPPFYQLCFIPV
Sequence of UniProt P08684 (P08684 whole entry, looked up): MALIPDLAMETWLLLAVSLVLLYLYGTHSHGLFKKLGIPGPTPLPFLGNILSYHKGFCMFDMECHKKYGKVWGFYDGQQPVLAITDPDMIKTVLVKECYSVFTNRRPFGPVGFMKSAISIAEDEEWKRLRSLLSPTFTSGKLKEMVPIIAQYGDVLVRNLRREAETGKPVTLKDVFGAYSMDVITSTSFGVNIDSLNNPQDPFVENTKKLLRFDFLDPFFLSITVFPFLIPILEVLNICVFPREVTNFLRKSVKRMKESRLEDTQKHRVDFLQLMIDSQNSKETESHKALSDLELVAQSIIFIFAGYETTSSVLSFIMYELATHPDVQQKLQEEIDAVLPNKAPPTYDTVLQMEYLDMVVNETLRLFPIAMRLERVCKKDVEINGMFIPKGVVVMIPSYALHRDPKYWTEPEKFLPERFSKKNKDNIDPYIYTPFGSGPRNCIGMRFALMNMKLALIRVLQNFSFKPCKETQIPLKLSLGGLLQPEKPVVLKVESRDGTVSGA
Sequence of UniProt O15297 (O15297 whole entry, looked up): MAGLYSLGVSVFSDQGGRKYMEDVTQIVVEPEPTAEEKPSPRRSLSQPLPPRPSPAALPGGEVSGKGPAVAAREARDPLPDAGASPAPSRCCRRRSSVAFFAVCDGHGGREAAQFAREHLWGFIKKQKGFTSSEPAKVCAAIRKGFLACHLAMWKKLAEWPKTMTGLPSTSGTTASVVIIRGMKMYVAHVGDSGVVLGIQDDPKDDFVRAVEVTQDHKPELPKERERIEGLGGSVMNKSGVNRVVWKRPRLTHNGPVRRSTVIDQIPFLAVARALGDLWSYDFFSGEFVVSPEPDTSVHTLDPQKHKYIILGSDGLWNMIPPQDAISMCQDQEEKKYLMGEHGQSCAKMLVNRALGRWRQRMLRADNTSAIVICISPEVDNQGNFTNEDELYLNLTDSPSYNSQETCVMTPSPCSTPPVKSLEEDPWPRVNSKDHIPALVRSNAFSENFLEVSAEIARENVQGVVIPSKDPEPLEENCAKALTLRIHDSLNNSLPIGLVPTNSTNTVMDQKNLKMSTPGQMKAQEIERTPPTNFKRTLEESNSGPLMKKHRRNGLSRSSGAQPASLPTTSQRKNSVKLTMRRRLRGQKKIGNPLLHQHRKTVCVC
Sequence of UniProt Q99828 (Q99828 whole entry, looked up): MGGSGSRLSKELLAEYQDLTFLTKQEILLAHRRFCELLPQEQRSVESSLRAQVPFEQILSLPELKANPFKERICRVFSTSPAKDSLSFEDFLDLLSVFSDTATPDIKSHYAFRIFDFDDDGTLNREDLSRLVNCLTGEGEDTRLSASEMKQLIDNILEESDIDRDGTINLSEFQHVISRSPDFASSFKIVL

Question: For `CC1(O)CC(c2nc(-c3ccc4ccc(-c5ccccc5)nc4c3)c3c(N)nccn23)C1` (stereo not drawn), which Potency [1] is on record?
Answer: inconclusive: 5.87 µM [inhibitor, full curve, poor fit]

Question: What about the Potency [2] of the same molecule?
Answer: inconclusive: 23.9 µM [inhibitor, single point] and inconclusive: 26.8 µM [inhibitor, partial curve, poor fit]

Question: Which results are given for `Cc1cccc(Nc2nc(N[C@@H]3CCCC[C@H]3N)ncc2C(N)=O)c1`?
Answer: Potency [1]: active: 13.1 µM; Potency [3]: inconclusive: 23.9 µM [inhibitor, single point]

Question: For `COCCOc1ccc2c(c1)ncn2-c1ccc2cccc(N3CCC(N)CC3)c2n1`, which Potency [1] is on record?
Answer: active: 1.86 µM

Question: What about the Potency [4] of the same molecule?
Answer: inactive

Question: What about the Potency [2] of the same molecule?
Answer: inconclusive: 23.9 µM [inhibitor, single point]

Question: What about the Potency [3] of the same molecule?
Answer: inconclusive: 9.52 µM [inhibitor, partial curve, poor fit]

Question: For `CC(=O)[C@H]1CC[C@H]2[C@@H]3CC=C4C[C@@H](O)CC[C@]4(C)[C@H]3CC[C@]12C`, which Potency [1] is on record?
Answer: inactive

Question: And the Potency [5]?
Answer: inconclusive: 0.123 µM [falling, single point]

Question: With `CC(C)CC(=O)Nc1n[nH]c2c1CN(C(=O)C1CCN(C)CC1)C2(C)C` as the molecule, how does the Potency [1] read?
Answer: active: 1.04 µM

Question: And the Potency [4]?
Answer: inactive

Question: What about the Potency [3] of the same molecule?
Answer: inactive

Question: Which Potency [1] does the source give for `Cn1cc(-c2ccncc2)c(-c2ccc(OCc3ccc4ccccc4n3)cc2)n1` here?
Answer: inconclusive: 16.5 µM [inhibitor, partial curve]

Question: And the Potency [3]?
Answer: active: 0.601 µM

Question: For `CCOC(=O)c1ncn2c1CN(C)C(=O)c1cc(F)ccc1-2`, which Potency [1] is on record?
Answer: inactive

Question: What about the Potency [2] of the same molecule?
Answer: inactive

Question: Which Potency [1] does the source give for `C[C@@H](NC(=O)c1ncnc(N)c1Cl)c1ncc(C(=O)Nc2cc(C(F)(F)F)c(Cl)cn2)s1` here?
Answer: inconclusive: 0.93 µM [inhibitor, full curve]

Question: And the Potency [2]?
Answer: inactive

Question: And the Potency [3]?
Answer: inconclusive: 21.3 µM [inhibitor, single point]

Question: For `CCC(=O)N1CCN(c2ccc(-n3c(=O)ccc4cnc5ccc(-c6cnc7ccccc7c6)cc5c43)cc2C(F)(F)F)CC1`, which Potency [1] is on record?
Answer: inconclusive: 0.0571 µM [inhibitor, full curve]

Question: What about the Potency [2] of the same molecule?
Answer: inconclusive: 23.9 µM [inhibitor, single point]

Question: Which Potency [1] does the source give for `COc1cc2nccc(Oc3ccc(NC(=O)Nc4cc(C)on4)c(Cl)c3)c2cc1OC` here?
Answer: active: 13.1 µM

Question: And the Potency [2]?
Answer: inconclusive: 10.7 µM [inhibitor, partial curve, poor fit]

Question: With `CC(C)(N)c1ccc(-c2nc3ccccc3nc2-c2ccccc2)cc1` as the molecule, how does the Potency [1] read?
Answer: inconclusive: 11.7 µM [inhibitor, partial curve, poor fit]

Question: What about the Potency [5] of the same molecule?
Answer: inconclusive: 37.9 µM [falling, single point]

Question: With `Cc1cc(Nc2nc(N[C@@H](C)c3ccc(F)cc3)c(C#N)cc2F)n[nH]1` as the molecule, how does the Potency [1] read?
Answer: active: 2.08 µM

Question: What about the Potency [2] of the same molecule?
Answer: active: 26.8 µM

Question: What does the source list for `Cc1cccc(N(C)C(=S)Oc2ccc3ccccc3c2)c1`?
Answer: activity change, negative = inhibition [1]: inconclusive: -30.1% [inhibitor]; Potency [2]: inconclusive: 27.5 µM [inhibitor, single point]

Question: For `CCc1c(O)cc(O)c(C(=O)c2ccc(OCCN3CCOCC3)c(OC)c2)c1CC(=O)N(CCOC)CCOC`, which Potency [1] is on record?
Answer: inconclusive: 0.658 µM [inhibitor, full curve]

Question: And the Potency [3]?
Answer: inconclusive: 21.3 µM [inhibitor, single point]

Question: For `CC1=C(C(=O)Nc2cc3cn[nH]c3cc2F)C(c2ccc(C(F)(F)F)cc2)CC(=O)N1` (stereo not drawn), which Potency [1] is on record?
Answer: inactive

Question: And the Potency [4]?
Answer: inconclusive: 749 nM [inhibitor, full curve, poor fit]

Question: And the Potency [2]?
Answer: inconclusive: 23.9 µM [inhibitor, single point]

Question: With `CCC(=O)O[C@]1(C(=O)CCl)[C@@H](C)C[C@H]2[C@@H]3CCC4=CC(=O)C=C[C@]4(C)[C@@]3(F)[C@@H](O)C[C@@]21C` as the molecule, how does the Potency [1] read?
Answer: inactive

Question: And the Potency [4]?
Answer: inactive

Question: What about the Potency [2] of the same molecule?
Answer: active: 11 µM

Question: What about the Potency [3] of the same molecule?
Answer: active: 17.4 µM

Question: Which results are given for `CCN1CCN(c2ccc(Nc3cc(N(C)C(=O)Nc4c(Cl)c(OC)cc(OC)c4Cl)ncn3)cc2)CC1`?
Answer: Potency [1]: inconclusive: 16.5 µM [inhibitor, partial curve, poor fit]; Potency [2]: inconclusive: 23.9 µM [inhibitor, single point]

Question: Which results are given for `NS(=O)(=O)c1cc2c(cc1Cl)NC=NS2(=O)=O`?
Answer: Potency [6]: inactive; Potency [7]: inactive; Potency [4]: inconclusive: 2.24 µM [inhibitor, full curve, poor fit] and inconclusive: 1.9 nM [inhibitor, full curve]

Question: With `COc1ccc2[nH]cc(CCNC(C)=O)c2c1` as the molecule, how does the Potency [1] read?
Answer: inactive

Question: What about the Potency [3] of the same molecule?
Answer: inactive

Question: With `CNC(=O)c1ccc2c(C(=Nc3cccc(CN(C)C)c3)c3ccccc3)c(O)[nH]c2c1` as the molecule, how does the Potency [1] read?
Answer: inconclusive: 8.29 µM [inhibitor, partial curve, poor fit]

Question: What about the Potency [2] of the same molecule?
Answer: inconclusive: 16.9 µM [inhibitor, partial curve, poor fit]
